Results on one compound are retold here after patent US9447047B2 (priority 2012, dated 2016).

The target in this test is PP1α (Homo sapiens, UniProt P62136). From the text: Analysis of the effect of 1H4 on the binding of the Tat RVxF sequence to PP1 using hybrid PP1 substrates containing a substrate phosphopeptide linked to RVxF-containing sequences derived from Tat or NIPP1 was undertaken. As the substrate phosphopeptide, a retinoblastoma protein-derived HIPR(pS)PYKFPSSPLR (SEQ ID NO: 1) peptide (pRb) was used that is efficiently dephosphorylated by PP1 but not by the enzymatically-related PP2A (Ammosova, T., et al., Protein Phosphatase-1 Activates CDK9 by Dephosphorylating Ser175. PLOS One, 2011. 6(4): p. e18985). The pRb peptide was linked to an extended RVxF-containing sequence derived from Tat (KKCCFHCQVCFITK, SEQ ID NO: 2) (pRb-Tat peptide) or the central domain of NIPP1 (KRKRKNSRVTFSED, SEQ ID NO: 3). Recombinant PP1α was assayed with pRb-Tat (WT or QACA mutant, 120 μM) in the absence or presence of 1H4 as indicated. The reactions were stopped at indicated time points and the phosphate release was quantified by malachite green assay. Initial velocity was calculated by linear regression in Prism. Recombinant PP1α was assayed with pRb-cdNIPP1 in the absence or presence of 1H4 as indicated. Mutant pRb cdNIPP1 pA-RATA was used as negative control. The reactions were stopped at indicated time points and the phosphate release was quantified by malachite green assay. Initial velocity was calculated by linear regression in Prism. The pRb-Tat peptide was efficiently dephosphorylated by PP1 in vitro (FIG. 4A, V0=0.31 μM·min^−1). […] Addition of 1H4 at 3-fold molar excess (480 μM) over pRb-Tat (160 μM) inhibited pRb-Tat dephosphorylation and reduced the rate of dephosphorylation (FIG. 4A, V0=0.19 μM·min^−1) to the rate of pRb-Tat QACA dephosphorylation (FIG. 4A, V0=0.17 μM·min^−1). […] To further investigate the effect of 1H4 on the dephosphorylation of the pRb-Tat peptide, the initial velocity versus pRb-Tat peptide substrate concentration plots was analyzed. […] The amount of the released phosphate was quantified with malachite green. […]
PP1α, sequence (P62136 whole entry, the tested form may be a part): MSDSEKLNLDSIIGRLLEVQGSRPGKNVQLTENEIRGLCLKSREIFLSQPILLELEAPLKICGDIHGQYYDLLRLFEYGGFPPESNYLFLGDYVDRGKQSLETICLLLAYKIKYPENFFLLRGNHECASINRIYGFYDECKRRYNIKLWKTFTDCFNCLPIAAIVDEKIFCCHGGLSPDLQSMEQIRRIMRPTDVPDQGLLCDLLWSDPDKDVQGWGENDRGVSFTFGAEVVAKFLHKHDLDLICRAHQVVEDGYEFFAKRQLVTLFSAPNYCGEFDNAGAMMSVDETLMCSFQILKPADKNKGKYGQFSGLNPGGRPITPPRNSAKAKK

As for `COCCNC(=O)OC(=O)c1c2c(nc3ccccc13)/C(=C\c1ccc(O)cc1)CCC2` [1H4], the “effect on pRb-Tat dephosphorylation (Km, Vmax)” value was “increasing Km but not Vmax”; the “initial velocity V0 of pRb-Tat dephosphorylation by PP1α” value is 0.19 μM·min^−1; the “initial velocity V0 of pRb-cdNIPP1 dephosphorylation by PP1α” value is given as 0.37 μM·min^−1.
